The values below come from PMC4336329 (PLoS ONE, 2015).

Screen size: about 310,000 compounds; about 14,000 (4.5%) showed an effect of 50% or more. Effects have a minus sign here. The list shows a part of the results.
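Further: peak tail current of the secondary pulse compared with the same well before compound.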

The target in the assay is human ether-à-go-go-related gene (hERG) potassium channel (human, UniProt Q12809). The assay can be described thus: primary screen, population patch clamp on CHO cells stably expressing hERG.
Chain of human ether-à-go-go-related gene (hERG) potassium channel (Q12809 whole entry, looked up): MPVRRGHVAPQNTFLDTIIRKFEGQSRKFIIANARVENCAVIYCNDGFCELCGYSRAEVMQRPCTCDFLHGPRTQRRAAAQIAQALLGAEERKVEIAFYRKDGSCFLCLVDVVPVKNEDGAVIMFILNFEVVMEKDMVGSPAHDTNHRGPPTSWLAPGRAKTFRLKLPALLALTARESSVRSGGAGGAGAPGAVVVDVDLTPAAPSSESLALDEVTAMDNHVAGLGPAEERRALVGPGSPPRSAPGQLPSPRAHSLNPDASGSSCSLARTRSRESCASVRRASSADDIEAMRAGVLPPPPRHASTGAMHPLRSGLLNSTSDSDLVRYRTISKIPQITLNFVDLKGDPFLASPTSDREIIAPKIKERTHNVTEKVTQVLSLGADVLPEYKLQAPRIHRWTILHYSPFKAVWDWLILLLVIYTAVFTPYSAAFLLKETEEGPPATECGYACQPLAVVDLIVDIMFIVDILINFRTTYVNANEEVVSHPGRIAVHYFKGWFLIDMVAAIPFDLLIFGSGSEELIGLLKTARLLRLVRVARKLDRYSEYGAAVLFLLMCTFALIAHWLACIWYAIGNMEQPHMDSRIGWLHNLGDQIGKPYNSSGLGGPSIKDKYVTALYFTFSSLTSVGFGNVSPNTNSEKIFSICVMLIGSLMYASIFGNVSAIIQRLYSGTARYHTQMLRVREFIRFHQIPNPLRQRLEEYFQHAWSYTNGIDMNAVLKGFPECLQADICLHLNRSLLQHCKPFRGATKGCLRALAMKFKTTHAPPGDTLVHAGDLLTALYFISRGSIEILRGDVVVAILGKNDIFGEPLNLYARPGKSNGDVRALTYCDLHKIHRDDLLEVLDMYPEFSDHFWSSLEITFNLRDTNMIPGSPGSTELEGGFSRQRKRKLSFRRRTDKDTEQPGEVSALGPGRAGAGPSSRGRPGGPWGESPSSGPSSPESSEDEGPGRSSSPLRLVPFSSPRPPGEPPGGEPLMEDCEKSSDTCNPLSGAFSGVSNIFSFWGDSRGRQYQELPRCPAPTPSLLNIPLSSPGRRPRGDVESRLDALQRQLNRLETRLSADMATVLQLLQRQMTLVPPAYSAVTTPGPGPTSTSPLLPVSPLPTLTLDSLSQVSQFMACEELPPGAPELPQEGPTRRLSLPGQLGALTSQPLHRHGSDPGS
Consider `COc1cc(C)nc2nc(SCc3ccccc3)nn12`, for which the “hERG current change (%, negative = inhibition) at 10uM” value turned out to be 7.43%.
`COc1ccccc1CNC(=O)CSc1nc(N)c(C#N)c(-c2cccs2)c1C#N`: the “hERG current change (%, negative = inhibition) at 10uM” value is recorded as -1.2%.
Consider `Cn1cnc(S(=O)(=O)Nc2ccc3c(c2)OCCO3)c1`, for which the “hERG current change (%, negative = inhibition) at 10uM” value is listed as 14.7%.
In the case of `O=C(Cc1ccccc1)Nc1ccnn1C1CCN(Cc2nccs2)CC1`, the “hERG current change (%, negative = inhibition) at 10uM” value was 7.8%.
The value for `C(=N/Nc1cc(N2CCOCC2)nc(N2CCOCC2)n1)/c1ccccc1` was -39.9%; that for `COC(=O)c1cc(-c2ccc(Br)cc2)n[nH]1` was 4.95%; that for `CC(=O)OC1CC(C)(C)N(OC(=O)c2ccccc2)C(C)(C)C1` was 6.97%.
Consider `CCOc1ccc(S(=O)(=O)NCCC(=O)NCCc2ccc(C(C)C)cc2)cc1`, for which the “hERG current change (%, negative = inhibition) at 10uM” value came to 3.89%.
The value for `COc1ccc(-c2noc(C(C)NS(=O)(=O)c3ccc(NC(C)=O)cc3)n2)cc1` (centres unmarked) was 17.5%; that for `Cl.O=C(COc1ccc(Cl)cc1)NC1CN2CCC1CC2` (centres unmarked) was -35.1%.
Turning to `O=C(COC(=O)COc1ccc(Nc2ccccc2)cc1)NCc1ccco1`, the “hERG current change (%, negative = inhibition) at 10uM” value was determined as 6.3%.
The value for `Cc1ccccc1NC(=O)CC1(c2ccc(N(C)C)cc2)C(=O)c2ccccc2C1=O` was 7.97%; that for `Cc1cc(C)n(-c2ccc(N3CCOCC3)nn2)n1` was -0.758%.
To `CC(C)CNC(=O)C1CCN(c2ccc(S(=O)(=O)N3CCOCC3)cc2Cl)CC1` belongs -19.3%; to `CC(=O)c1cccc(NC(=O)c2cnccn2)c1`, 4.59%; to `C=CCn1cc(C(=O)N2CCN(c3ccccc3)CC2)c(=O)c2cc(S(=O)(=O)N3CCCC3)ccc21`, -1.44%.
To `O=C(/C=C/c1ccco1)Nc1ccc(N2CCCC2)cc1` belongs 10.5%.
With `N#Cc1c(NC(=O)c2cc([N+](=O)[O-])ccc2N2CCOCC2)sc2c1CCCC2`, the “hERG current change (%, negative = inhibition) at 10uM” value is given as 4.02%.
To `CCOC(=O)N1CCC(N2Cc3cccc(C(=O)N4CCN(C5CCCCC5)CC4)c3C2=O)CC1` belongs -62.4%.
For `CCNc1nc(NC(C)C)nc(OCCNS(=O)(=O)c2cc(C)ccc2C)n1`, the “hERG current change (%, negative = inhibition) at 10uM” value was -47.7%.
As for `CN1CCN(c2cc(N3CCc4ccccc4C3)c(F)cc2[N+](=O)[O-])CC1`, the “hERG current change (%, negative = inhibition) at 10uM” value was -44.2%.
Take `CC(=O)Oc1cccc(Nc2ncnc3ccccc23)c1`: the “hERG current change (%, negative = inhibition) at 10uM” value is on record as -1.52%.
In the case of `CCCc1nc(SCC(=O)N2CCC(Cc3ccccc3)CC2)c2c(=O)n(C)c(=O)n(C)c2n1`, the “hERG current change (%, negative = inhibition) at 10uM” value was -34.8%.
The value for `Cc1ccc(Cn2ncc3c(N4CCN(CCc5ccccc5)CC4)ncnc32)cc1` was 5.73%.
As for `O=C(NNC(=S)Nc1ccc(Cl)c(Cl)c1)c1cccc([N+](=O)[O-])c1`, the “hERG current change (%, negative = inhibition) at 10uM” value is listed as 36%.
In the case of `CCN(CC)CCOC(=O)c1ccc(NC(=O)CNC(=O)C2CCCCC2)cc1.Cl`, the “hERG current change (%, negative = inhibition) at 10uM” value is reported as -9.28%.
Turning to `O=C(CN1C(=O)C2C3C=CC(C3)C2C1=O)Nc1ccc2c(c1)OCCO2` (centres unmarked), the “hERG current change (%, negative = inhibition) at 10uM” value is -4.27%.
With `CN(c1ccccc1C(=O)NCc1ccccc1Cl)S(=O)(=O)c1ccccc1`, the “hERG current change (%, negative = inhibition) at 10uM” value is reported as -12.8%.
`Cc1cccc(-c2noc(CCC(=O)NC3CCCC3)n2)c1`: the “hERG current change (%, negative = inhibition) at 10uM” value stood at 4.37%.
To `CSc1ccc(Cl)c(C(=O)NCCOc2cc(C)ccc2C(C)C)c1` belongs 9.11%; to `Nn1cnnc1SCC(=O)Nc1ccc(C2CCCCC2)cc1`, 12.5%; to `Cc1cccc(NC(=S)NCC(c2cccnc2)N(C)C)c1C` (centres unmarked), 4.1%.
To `COc1cccc(-c2nnc(SCC3CNC(=O)O3)n2-c2ccc(Cl)cc2)c1` (centres unmarked) belongs 8.33%; to `CCC(C)NC(=O)Cn1cnc2sc(C)c(S(=O)(=O)N3CCCCC3)c2c1=O` (centres unmarked), 14.6%; to `C1CC2OC2CC1C1CO1` (centres unmarked), 20.4%.
For the molecule `CCOC(=O)c1ccc2c(c1)nc(SCC(=O)c1ccco1)n2CC`, the “hERG current change (%, negative = inhibition) at 10uM” value was found to be 5.46%.
On to `Cc1cc(-c2onc(C)c2C(=O)Nc2ccc(C(F)(F)F)cc2)no1`, for which the “hERG current change (%, negative = inhibition) at 10uM” value turned out to be 5.24%.
As to `O=C(NCC1(c2ccccc2)CCOCC1)c1ccc(Br)o1`, the “hERG current change (%, negative = inhibition) at 10uM” value worked out at 0.16%.
Regarding `CCC(=NCCCO)c1c(O)n(-c2ccc(OC)cc2)c(=O)[nH]c1=O`, the “hERG current change (%, negative = inhibition) at 10uM” value came to 12.2%.
To `Cc1[nH]c(=O)[nH]c(=O)c1/C=N/NC(=O)[C@H](CC(C)C)NC(=O)OC(C)(C)C` belongs 7.2%; to `CC(OC(=O)c1ccc([N+](=O)[O-])s1)C(=O)NC1CCCCC1C` (centres unmarked), 3.13%; to `CCOC(=O)N1CC=C2C(C#N)=C(N)C(C#N)(C#N)[C@H](c3cccs3)C2C1` (some centres unmarked), -2.45%.
Consider `O=C(Oc1c(-c2ccccc2)c(=O)n2c3c(cccc13)CC2)c1ccco1`, for which the “hERG current change (%, negative = inhibition) at 10uM” value is listed as -62%.
Consider `COc1ccc(/C=C(\NC(=O)c2ccco2)C(=O)N2CCCCC2)cc1`, for which the “hERG current change (%, negative = inhibition) at 10uM” value came out at 19.7%.
